{
  "source": "PubChem BioAssay AID2060506",
  "about": "(Molecular Pharmacology Branch, DTP, NCI, 2025)",
  "tested_on": "598228-144-R-J1-PDC complex spheroid viability",
  "experiment": "Anticancer human tumor 598228-144-R-J1-PDC patient-derived serous endometrial adenocarcinoma cell line growth inhibition [GQUAD]",
  "conditions": "for IC50: compound alone; for viability, T/C: stronger effect = lower value",
  "description": "DNA G-quadruplex Stabilizer Agents in Combinations in Complex Spheroids\nA high-throughput screen of multi-cell type tumor spheroids was designed to identify active combinations of DNA G-quadruplex stabilizer agents and targeted small molecules. Complex spheroids include a stromal component modeled by human endothelial cells (HUVEC) and fibroblasts modeled by human mesenchymal stem cells (MSCs). The concentration ranges selected for each drug and investigational agent were based upon clinically achievable concentrations if the clinical Cmax of the agent was known.\nCompounds. The drugs and investigational agents: pidnarulex (CX-5461; NSC782164), APTO-253 (NSC789042), BRACO-19 (NSC847499), peposertib (NSC802822), ceralasertib (NSC780249), elimusertib (NSC800525), camonsertib (NSC841442), AZD-1390 (NSC803789), olaparib (NSC753686), talazoparib (NSC767125), ART-558 (NSC835418), sotorasib (NSC818433), MRTX-1133 (NSC836407), SN-38 (NSC673596), topotecan (NSC609699), etoposide (NSC141540), doxorubicin (NSC123127), gemcitabine (NSC613327), 5-fluorouracil (NSC19893), paclitaxel (NSC125973), vemurafenib (NSC761431), panobinostat (NSC761190), R-306465 (JNJ-16241199; NSC773264), adavosertib (NSC754352), TP-3654 (NSC805149), carboplatin (NSC241240), KSQ-4279 (NSC840948), and staurosporine (NSC755774) were obtained from the National Cancer Institute (NCI) Developmental Therapeutics Program Chemical Repository (34). The FDA-approved anticancer drug set is available from the NCI Developmental Therapeutics Program. […] The stock solutions were prepared in dimethyl sulfoxide (DMSO, Sigma-Aldrich, St. Louis, MO, cat. D2650) at 800-fold the tested concentration and stored at -70 degrees C prior to their use. All drugs and investigational agents were tested over a range starting from a high concentration at or near the clinical Cmax and decreasing in half-log increments. If the clinical Cmax for an agent had not been determined, the highest concentration tested was 10 microM.\n2.3 Cell Culture. All cells were maintained in an incubator at 37 degrees C and 5% CO2 with 95% humidity. The PDC lines were cultured according to standard operating procedures established by the NCI PDMR. All PDCs were thawed and cultured in Matrigel-coated flasks prepared with a working solution of 1X Ham's F-12 nutrient mix, without supplementation (Invitrogen, cat. 11765054), 100 U/mL penicillin-streptomycin (Invitrogen, cat. 15140122), and 2.5% Matrigel (Corning Inc., cat. 354248) for the first three passages. The 857933-349-R-J2-PDC line was cultured in 6C/Colon 1B media, which includes advanced DMEM/F-12 (Thermo Fisher Scientific, cat. 12634028), 10 mM HEPES (Thermo Fisher Scientific, cat. 15630080), 1X GlutaMAX supplement (Thermo Fisher Scientific, cat. 35050061), 0.1 mg/mL primocin (InvivoGen, cat. ant-pm-2), 10% defined fetal bovine serum, heat inactivated (HyClone Laboratories Inc., cat. SH30070.03HI), 50% L-WRN conditioned media (ATCC, cat. CRL-3276), 1.25 mM N-Acetyl-L-cysteine (Sigma-Aldrich, cat. A9165), 10 mM nicotinamide (Sigma-Aldrich, cat. N0636), 1X B-27 supplement (Thermo Fisher Scientific, cat. 17504044), 1X N-2 supplement (Thermo Fisher Scientific, cat. 17502048), 10 microM Y-27632 dihydrochloride (Tocris Bioscience, cat. 1254), and 50 ng/mL human EGF recombinant protein (Thermo Fisher Scientific, cat. PHG0311). The 485176-168-R4-J1-PDC line was cultured in Panc media, which includes all 6C/Colon 1B media components plus 100 ng/mL human FGF-10 (Thermo Fisher Scientific, cat. 100-26), 500 nM SB-431542 (Selleckchem, cat. S1067), and gastrin (Tocris, cat. 3006).\n[…]",
  "note": "Not every entry of the source has a single result; some have several. The other results are left out here. An entry can have further records. Values given together are repeated measurements across runs, samples, wells, individuals or studies. Marks such as (2×) count equal records among those shown.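 Further: spheroids exposed to the agents for one week before reading.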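 Wherever viability, T/C is given: percent of vehicle DMSO control viability so 100% = untreated growth.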",
  "data": [
    {"smiles": "C=CCn1c(=O)c2cnc(Nc3ccc(N4CCN(C)CC4)cc3)nc2n1-c1cccc(C(C)(C)O)n1", "values": [
      {"measurement": "IC50", "value": "> 10 µM, 2.45 µM, 784 nM"}
    ]},
    {"smiles": "Cc1[nH]c2ccc(F)cc2c1-c1nc2c3cccnc3c3ncccc3c2[nH]1", "values": [
      {"measurement": "viability, T/C", "setting": "compound alone 0.1 µM", "value": "103, 92.8, 98.8, 89.6, 122, 76.5, 89.7, 99.4, 92.1, 105, 108, 114%"},
      {"measurement": "viability, T/C", "setting": "compound alone 0.316 µM", "value": "101, 94.6, 78, 69.1, 81.3, 88.2, 95.2, 87.2, 89.1, 99, 98.9, 104%"},
      {"measurement": "viability, T/C", "setting": "compound alone 1 µM", "value": "60.8, 71.5, 58.2, 57.8, 62.1, 56.8, 58.8, 64.1, 61.2, 70.2, 88.6, 62.6%"}
    ]},
    {"smiles": "Cc1cnc(CNC(=O)c2c(=O)c3ccc(N4CCCN(C)CC4)nc3n3c2sc2ccccc23)cn1", "values": [
      {"measurement": "viability, T/C", "setting": "compound alone 0.0316 µM", "value": "98.6, 89.8, 94.7, 84.8, 78.4, 77.5, 83.3, 71.5, 98.3, 83, 81.1, 93.1%"},
      {"measurement": "viability, T/C", "setting": "compound alone 0.316 µM", "value": "71.7, 83.9, 84.7, 75.5, 67.5 (2×), 68.8 (2×), 68.3, 56.7, 62.9, 70.5%"},
      {"measurement": "viability, T/C", "setting": "compound alone 10 µM", "value": "64, 54.4, 51.8, 42.9, 45, 18.4, 12.9, 43.1, 49.9, 29.4, 26.6, 33.8%"},
      {"measurement": "IC50", "setting": "run of 03/18/2024", "value": "5.6 µM, 5 µM, 3.97 µM, 2.37 µM, 5.06 µM, > 10 µM, 3.84 µM, 4.17 µM, 4.15 µM"}
    ]},
    {"smiles": "CN(C)c1ccc(Nc2c3ccc(NC(=O)CCN4CCCC4)cc3nc3cc(NC(=O)CCN4CCCC4)ccc23)cc1", "values": [
      {"measurement": "viability, T/C", "setting": "compound alone 0.316 µM", "value": "97.2, 114, 96.8, 111, 104, 105, 97.9, 109, 93.3, 118, 108, 119%"}
    ]}
  ]
}
